# Assay results published in PubChem BioAssay AID1671193 (National Center for Advancing Translational Sciences (NCATS), 2021).
# The whole screen tested about 150,000 compounds, of which about 180 (0.12%) were called active. Inconclusive results, whose numbers are uncertain, are shown with a selection of clear calls. Calls follow the shape of the dose curve; as a rule, active = well fitted cell-killing curve with a large enough effect; inconclusive = small, poorly fitted or top-dose-only effect, or effect the other way; inactive = flat fitted curve, though single readings scatter. Potencies beside an inconclusive call are fits to weak or partial responses and may not hold up.
# Test: GF-AFC viability counterscreen for inhibitors of alpha-synuclein gene (SNCA) expression; also: nearly all actives have a fitted effect of over 30% in size
# Settings: HEK-293-SNCA-luc viability, GF-AFC fluorescence, 24 h; series mostly up to 57.1 µM
# Summary of the method: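 Cytotoxicity counterscreen: after 24 h compound treatment of genome-edited SNCA-luciferase HEK-293 cells, live-cell protease substrate GF-AFC read by fluorescence after 30 min; activity scaled between DMSO (0%) and medium-only (-100%), curves Hill-fitted.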
# Potency is read from the fitted curve at half-maximal effect; tags tell the direction and shape of the fitted curve.
row,Compound,Potency
1,CCCN1CCC2(CCN(C(=O)c3ccccc3C)CC2)Oc2ccccc21,inactive
2,N#Cc1cnc(N2CC3CCC(C2)N3CC(F)(F)F)s1,inactive
3,COc1ccc(C(=O)N[C@H]2CO[C@H]3[C@@H]2OC[C@@H]3n2nnnc2Oc2cccc(N(C)C)c2)cc1,"inconclusive: 8.91 µM [cytotoxic, partial curve]"
4,CC(=O)NCC(=O)N1C2CCC1c1cc(Nc3ncc(C(F)(F)F)c(NC4CCC4)n3)ccc12 (centres undefined),"inconclusive: 26.7 µM [cytotoxic, partial curve, poor fit]"
5,CN1CCN(Cc2cn(Cc3ccccc3)nc2-c2ccc3c(c2)OCO3)CC1,"inconclusive: 39.8 µM [cytotoxic, single point]"
6,NC(=O)Cc1c[nH]c2ncc(-c3cccc(CO)c3)cc12,inactive
7,Cc1csc(NC(=O)c2nc(C(O)c3ccccc3)oc2C)n1 (centres undefined),inactive
8,Cc1cc(CNC(=O)c2cc(-c3ccccc3F)cc3c2OCCN3C)no1,inactive
9,COc1ccc(-c2nc3scc(CCNS(=O)(=O)c4ccc5c(c4)OCCO5)n3n2)cc1,"inconclusive: 7.08 µM [cytotoxic, full curve, poor fit]"
10,CCNc1ncc2nc(-c3cn(C)c4ccccc34)c(=O)n(-c3ccccc3)c2n1,"inconclusive: 2 µM [rising, partial curve, poor fit]"
11,CCOc1ccc(Nc2c(S(=O)(=O)c3ccccc3)cnc3ccc(F)cc23)cc1,"inconclusive: 12.6 µM [cytotoxic, partial curve, poor fit]"
12,COc1ccccc1C(=O)NCc1nnc2ccc(-c3ccc(C)cc3)nn12,"inconclusive: 11.2 µM [cytotoxic, partial curve, poor fit]"
13,COc1ccc(NC(=O)CSc2nc(-c3cccc(C)c3)[nH]c2-c2ccccc2)cc1OC,"inconclusive: 22.4 µM [cytotoxic, partial curve, poor fit]"
14,N#CC(CCCN1CCC(O)(c2ccc(Cl)cc2)CC1)(c1ccccc1)c1ccccc1,"inconclusive: 37.7 µM [cytotoxic, single point]"
15,Cc1ccccc1CN1Cc2nc(-c3cnn(Cc4ccccc4)c3)ccc2OCC1=O,"inconclusive: 35.5 µM [cytotoxic, single point]"
16,CCC(=O)Nc1ccccc1-c1nc2ccccc2n(CC(=O)Nc2ccccc2OC)c1=O,"inconclusive: 2.82 µM [cytotoxic, full curve, poor fit]"
17,COc1ccc(C(=O)N[C@@H]2CCC[C@@H]2C(=O)N2CCN(c3cc(C)ccc3C)CC2)cn1,"inconclusive: 7.08 µM [cytotoxic, full curve, poor fit]"
18,COc1ccc(-c2nc(N3CCOC[C@H]3C)cc3c2CN(C(C)C)C3=O)cc1,inactive
19,CON=C(C(=O)N[C@@H]1C(=O)N2C(C(=O)OCOC(=O)C(C)(C)C)=C(C=Cc3scnc3C)CS[C@H]12)c1csc(N)n1,"inconclusive: 10.8 µM [cytotoxic, full curve]"
20,CCc1ccc(C(=O)N2CCC(N3C(=O)CCC3C(N)=O)CC2)cc1 (centres undefined),"inconclusive: 39.8 µM [cytotoxic, single point]"

row,Compound,Potency
1,O=C1CCN(C(=O)c2ccc3ccccc3n2)CCOCCN1,"inconclusive: 5.62 µM [cytotoxic, single point]"
2,O=C1CSC2(C(=O)N(Cc3cccc(F)c3)c3ccccc32)N1c1cccc(C(F)(F)F)c1 (centres undefined),"inconclusive: 20 µM [cytotoxic, partial curve, poor fit]"
3,COc1ccc(Nc2cc(C(=O)NCCCN3CCN(c4ccccc4F)CC3)c3ccccc3n2)c(OC)c1,"inconclusive: 28.2 µM [cytotoxic, single point]"
4,COc1ccccc1-c1cc2c(nc1-c1ccccc1)nc(C(=O)NCCN(C)C)n2C,inactive
5,COc1ccc(-c2nc3scc(CCNS(=O)(=O)c4ccc(F)cc4C)n3n2)cc1,"inconclusive: 3.55 µM [cytotoxic, full curve]"
6,O=C(c1ccccc1Cl)N1C[C@@H](CO)[C@H](c2nc(C3CC3)no2)C1,inactive
7,O=C(NC1CCN(c2cc(-c3ccccc3)[nH]n2)C1)c1cc(F)ccc1Cl (centres undefined),inactive
8,COc1ccccc1CN(C)C1CCc2ccccc21 (centres undefined),inactive
9,CN1C(=O)c2ccccc2Sc2ccc(NC(=O)c3ccc(C(F)(F)F)cc3)cc21,"inconclusive: 4.47 µM [cytotoxic, single point]"
10,C/C=C/C=C/C1=C2C(=O)C3(C)C4C(C(=O)CC(O)/C=C/C)=C(O1)C1(C)C2C2(C)OC1(O)C4(C)OC23O (centres undefined),"inconclusive: 13 µM [cytotoxic, single point]"
11,COc1ccc(CCNC(=O)Cn2cc(S(=O)(=O)Cc3ccc(F)cc3)c3ccccc32)cc1OC,"inconclusive: 39.8 µM [cytotoxic, single point]"
12,CN(C)CCc1c[nH]c2ccc(C[C@H]3COC(=O)N3)cc12,"inconclusive: 15.2 µM [cytotoxic, partial curve, poor fit]"
13,O=C(NCc1ccco1)c1ccc(Cn2c(SCc3ccccc3F)nc3cccnc32)cc1,"inconclusive: 31.6 µM [cytotoxic, single point]"
14,CC1CCN(S(=O)(=O)c2ccc3c(c2)N(CC(=O)NCC(C)c2ccccc2)C(=O)CO3)CC1 (centres undefined),"inconclusive: 39.8 µM [cytotoxic, single point]"
15,COc1ccc(NC(=O)CCc2ccnc(N3CCCC3)c2)c(C)c1,inactive
16,Cc1cc(NC(=O)CN2C(=O)NC(c3ccc(Cl)cc3)C3=C2COC3=O)ccc1Br (centres undefined),"inconclusive: 25.1 µM [cytotoxic, single point]"
17,COc1cccc(CNS(=O)(=O)c2c(C(=O)N3CCC(C)CC3)c(C)n(C)c2C)c1,"inconclusive: 10 µM [cytotoxic, partial curve, poor fit]"
18,COc1ccc(CCNC(=O)c2cc(-c3cc(Cl)cc(Cl)c3)c3nncn3n2)cc1,"inconclusive: 39.8 µM [cytotoxic, single point]"
19,COc1cccc(N2CCN(c3nc(C(=O)NCc4cccc(C)c4)cs3)CC2)c1,"inconclusive: 39.8 µM [cytotoxic, single point]"
